Source: PubChem BioAssay (NCI)
Several values for one entry are separate records, joined by “and”; a condition that tells them apart may be missing. Identical values can stand only once.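 Growth conditions: 96-well plates. Treatment: test compound, 48 hours, 5 concentrations. Analysis: linear interpolation between bracketing concentrations; unreached endpoints set to highest concentration. GI50: concentration for 50% inhibition of growth. Definition used: TGI = concentration required for complete inhibition of growth.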 Peptide text beside a SMILES is read from it. * marks the point of attachment. Boc = CC(C)(C)OC(=O)*

System: NCI-H322M lung
Assay: growth of human tumour cells (NCI), 48 h

| Structure (SMILES) | GI50 | TGI [µM] |
| --- | --- | --- |
| Nc1cc(N)c2nc(-c3ccccc3)c(Sc3ccc(Cl)c(Cl)c3)nc2c1 | 7.1 µM | 35.6 |
| COCCCN(Cc1cc(OC)c(OC)c(OC)c1)C(=S)Nc1cccc(Cl)c1 | – | > 100 |
| CC1(C)COC2(OC1)C1=NS(=O)(=O)CC13CCC2C3(C)C (stereo unspecified) | – | > 100 |
| Brc1ccc2[nH]cc([C@H]3CN[C@@H](c4c[nH]c5ccc(Br)cc45)CN3)c2c1 | – | 10.2 |
| CC1C2C=CC1C(c1c3ccc(=O)c(O)c-3oc3c(O)c(O)ccc13)C2C(=O)O (stereo unspecified) | – | > 100 |
| Nc1nc(=S)c2c(ncn2CC(O)CO)[nH]1 (stereo unspecified) | – | > 100 |
| [Co+2].[O-]c1ccccc1C=NCc1ccccc1.[O-]c1ccccc1C=NCc1ccccc1 | 24.8 µM | > 100 |
| COc1ccc(NC(=S)N=Nc2c(O)[nH]c3ccccc23)cc1 | – | > 100 |
| Cc1ccccc1OCC(COC(=O)Nc1ccccc1)OC(=O)Nc1ccccc1 (stereo unspecified) | – | > 100 |
| O=C(O)CSc1ccc2[nH]c3ccccc3c(=O)c2c1 | – | > 100 |
| CC1=NN(c2cccc(Cl)c2)C2(SCC(=O)N2c2nc3ccccc3s2)/C1=C\c1ccccc1 (stereo unspecified) | – | 70.1 |
| CCOC(=O)C(Cc1ccc([N+](=O)[O-])cc1)NC(=O)CC1c2ccccc2-c2ccccc21 (stereo unspecified) | – | > 100 |
| Cc1cn(CCCCCCOC(=O)NC(CCCN=C(N)N)C(=O)O)c(=O)[nH]c1=O (stereo unspecified) | – | > 100 |
| CC1=C(C(=O)Nc2cc(F)c(F)cc2F)C(c2ccc3c(c2)OCO3)C(C(=O)Nc2cc(F)c(F)cc2F)=C(C)N1 | – | 78 |
| Cc1c(C(=O)O)nc(/C=C/C(=O)O)[nH]c1=O | – | > 100 |
| CCOC(=O)C1N(S(=O)(=O)c2ccc(C)cc2)CCC12c1ccccc1NC2c1ccc(OC)c(OC)c1 (stereo unspecified) | – | > 100 |
| CC(C)CCC[C@@H](C)[C@H]1CCC2C3=CCn4c(=O)ccc(=O)n4C3CC[C@@]21C (stereo partly specified) | 1.27 µM | 2.65 |
| C=C(Nc1ccc(OC)cc1OC)C(=O)Cc1cccc[n+]1[O-] | – | > 100 |
| CN1C(=O)CC2(C)c3cc(O)ccc3N(C)C12 (stereo unspecified) | > 75 µM | > 75 |
| Cc1nc2c([nH]c1C)c(O)cc1c3c(nc12)C(=O)CCC3 | – | > 100 |
| COc1cc2c(/C=C3/C(=O)Nc4ccc(O)cc43)c(Cl)[nH]c2cc1C | – | 13.5 |
| CC(=O)CC(=O)Nc1c(C)[c]([Hg][O]C(C)=O)c(C)[c]([Hg][O]C(C)=O)[c]1[Hg][O]C(C)=O | 16.8 µM | 30.5 |

| Structure (SMILES) | GI50 | TGI [µM] |
| --- | --- | --- |
| CN(C)C=Nc1ccc2nonc2c1 | – | > 100 |
| COc1ccc2nccc(NCCCN3CCN(CCCNc4ccnc5ccc(OC)cc45)CC3)c2c1 | – | 4.74 |
| C[C@]12Cc3cn[nH]c3C(=O)C1CC[C@@H]1C2CC[C@@]2(C)C1CC[C@]2(C)O (stereo partly specified) | – | > 100 |
| CC1CC(C)CN(S(=O)(=O)c2cc(Cl)c(Oc3ccc([N+](=O)[O-])cc3Cl)c(Cl)c2)C1 (stereo unspecified) | – | > 100 |
| COc1ccc(N2C(=O)C3c4[nH]c5ccc(C)cc5c4C4CCC(c5ccccc5)CC4C3C2=O)cc1 (stereo unspecified) | – | > 100 |
| C[N+](C)(C)CC(=O)N/N=C(/Cc1nc2ccc(Cl)cc2[nH]c1=O)C1=NS(=O)(=O)c2cc(S(N)(=O)=O)c(Cl)cc2N1 | – | > 100 |
| CC(C)c1cccc(C(C)C)c1NC(=S)N=Nc1cc(C(C)(C)C)c(O)c(C(C)(C)C)c1 | – | > 100 |
| Cn1c2c(c3ccccc31)C1C(=O)N(c3ccccc3)C(=O)C1CC2 (stereo unspecified) | – | > 303 |
| O=C(Nc1ccccc1Cl)c1cc(S(=O)(=O)Nc2n[nH]c(=O)n2-c2ccccc2)c(S)cc1Cl | – | > 100 |
| COC(=O)[C@@]12CCCC(=O)[C@@H]1[C@H]1CCC[C@H]12 | – | > 100 |
| COC1=CC(=C(C#N)C(=Nc2ccccc2)SC)C=C(OC)C1=O | – | > 100 |
| CC1CCN(CCC(=O)CC(c2ccccc2)c2c(O)c3ccccc3oc2=O)CC1 (stereo unspecified) | – | > 100 |
| COP1(=O)OCc2cnccc2O1 (stereo unspecified) | – | > 100 |
| S=C(N/N=C/c1ccccc1)NC12CC3CC(CC(C3)C1)C2 | – | > 100 |
| Cc1ccc(-c2cc3c(NC(=O)C4CC4)ncnc3o2)cc1 | > 25 µM | > 25 |
| O=P(O)(O)OC1OC(CO)C(O)C(O)C1O (stereo unspecified) | – | > 100 |
| COc1ccc(N=Nc2c(O)ccc3ccccc23)cc1 | – | > 100 |
| CCOC(=O)c1nc2ccccc2nc1Nc1ccc(Cl)c(Cl)c1 | – | > 100 |
| COS(=O)(=O)OCCC(NC(=O)OCc1ccccc1)C(=O)OCc1ccccc1 (stereo unspecified) | – | > 100 |
| O=c1cc(-c2ccccc2)[nH]c2ccc(N3CCCCC3)cc12 | – | > 100 |
| CC(NC(=O)OC(C)(C)C)C(=O)NC(Cc1ccccc1)C(=O)NCC(=O)O (stereo not drawn) (Boc-Ala-Phe-Gly-OH; configuration not given here) | – | > 100 |
| CCOCc1cc(=O)c2c(O)cc3c(c2o1)CCC(C)(C)O3 | – | > 100 |

| Structure (SMILES) | GI50 | TGI [µM] |
| --- | --- | --- |
| CC[N+](CC)(CC)Cc1cc2ccccc2n1C(=O)OC | – | > 100 |
| CCC1=C(C)c2cc3[n-]c(cc4nc(c(C=O)c5[n-]c(cc1n2)c(C)c5CC)C(C)=C4CC)c(C)c3CC.[Ni+2] | > 100 µM | > 100 |
| Cn1c2c(c3ccc(-c4ccn[nH]4)cc3c1=O)C(=O)c1ccccc1-2 | 7.01 µM | > 100 |
| Nc1ccn([C@@H]2O[C@H](COP(=O)(O)O[C@@H]3C[C@H](n4cc(F)c(=O)[nH]c4=O)O[C@@H]3COP(=O)(O)O[C@@H]3C[C@H](n4cc(F)c(=O)[nH]c4=O)O[C@@H]3COP(=O)(O)O[C@@H]3C[C@H](n4cc(F)c(=O)[nH]c4=O)O[C@@H]3COP(=O)(O)O[C@@H]3C[C@H](n4cc(F)c(=O)[nH]c4=O)O[C@@H]3COP(=O)(O)O[C@@H]3C[C@H](n4cc(F)c(=O)[nH]c4=O)O[C@@H]3COP(=O)(O)O[C@@H]3C[C@H](n4cc(F)c(=O)[nH]c4=O)O[C@@H]3COP(=O)(O)O[C@@H]3C[C@H](n4cc(F)c(=O)[nH]c4=O)O[C@@H]3COP(=O)(O)O[C@@H]3C[C@H](n4cc(F)c(=O)[nH]c4=O)O[C@@H]3COP(=O)(O)O[C@@H]3C[C@H](n4cc(F)c(=O)[nH]c4=O)O[C@@H]3COP(=O)(O)O[C@@H]3C[C@H](n4cc(F)c(=O)[nH]c4=O)O[C@@H]3COP(=O)(O)OCCOCCOCCOCCOCCOCCO)[C@H](O)C2O)c(=O)n1 (stereo partly specified) | > 100 µM | > 100 |
| CCCCCCCc1c(Cl)nc(Cl)nc1Cl | – | 20.1 |
| Cc1cc(C(=O)NC(C)(C)C)cc(C#Cc2ccc3c4c(oc3c2)C(C)(C)c2cc(NS(C)(=O)=O)ccc2C4=O)n1 | 2.25 µM | > 100 |
| O=C1/C(=C/c2cccc([N+](=O)[O-])c2)N=C(c2ccccc2)N1c1nc2c(Cl)cc(Cl)cc2s1 | – | > 100 |
| OCC#Cc1ccccc1C#CCCCCCCC#Cc1ccccc1C#CCO | 18.3 µM | 33.3 |
| Cc1nnc(N)nc1/C=C\c1ccc(N(C)C)cc1 | – | > 100 |
| CC(NC(=O)C(Cc1ccc(OC(=O)c2ccccc2)cc1)NC(=O)OC(C)(C)C)C(=O)NCC(=O)NC(Cc1ccccc1)NC(=O)OCc1ccccc1 (stereo unspecified) | – | > 100 |
| Nc1ccc2c(c1)S(=O)(=O)c1cc(O)ccc1O2 | – | > 100 |
| N#CC(NCCc1ccccc1)c1ccccc1 (stereo unspecified) | – | > 100 |
| Cc1ccc(S(=O)(=O)NC2C(=O)c3ccccc3C(=O)C2n2ccnc2)cc1 (stereo unspecified) | – | 28 |
| COC(=O)C1CCC(NC(=O)c2csc([C@@H](C[C@H](C(C)C)N(C)C(=O)[C@@H](NC(=O)[C@H]3CCCCN3C)C(C)C)OC(C)=O)n2)CC1 (stereo partly specified) | 0.007 µM and 0.0136 µM | > 33.3 |
| N#Cc1cc(-c2nc3ccc(F)cc3s2)ccc1N | – | > 100 |
| C/C=C(\C)C(=O)O[C@H]1C=CC(=O)O[C@H]1CC[C@H](O)[C@H](C)O | 16.3 µM | 32 |
| CC1=CC(=O)C(=C(C)C)CC1 | – | > 100 |
| CCN(CC)CCNc1ccc2ncn3c4ccccc4c(=O)c1c23 | – | 14.4 |
| Cc1ccc(S(=O)(=O)NC2=NCCN2C(=S)SN2CCn3c2nsc3=S)cc1 | 15.1 µM | 46.1 |
| CC(=O)CC(O)(C(F)(F)Cl)C(F)(F)Cl | – | > 10 |
| O=C(N=Nc1ccc(Br)cc1)NNc1ccc(Br)cc1 | – | > 100 |
| O=C1OC(c2cccc(C(F)(F)F)c2)c2ccc3ccccc3c21 (stereo unspecified) | > 100 µM | > 100 |

| Structure (SMILES) | GI50 | TGI [µM] |
| --- | --- | --- |
| NC(=O)NC(=O)c1cccc(NC(=O)CI)c1 | – | 15.8 |
| COc1ccc(/C(Cl)=C(\C=O)c2ccc(Cl)c(Cl)c2)cc1 | – | 29.4 |
| NC(=O)c1c2c(n3ccccc13)C(=O)c1ccccc1C2=O | – | > 100 |
| CSCCC(NC(=O)CNC(=O)C(CC(=O)O)NC(=O)C(NC(=O)C(NC(=O)C(NC(=O)CNC(=O)C(CCC(N)=O)NC(=O)C(CCSC)NC(=O)C(CC(=O)O)NC(=O)C(C)NC(=O)C(C)NC(=O)C(NC(=O)C(CO)NC(=O)C(N)CC(C)C)C(C)O)C(C)C)C(C)C)C(C)O)C(=O)NC(C)C(=O)NC(CO)C(=O)NCC(=O)NC(CC(C)C)C(=O)NC(CC(=O)O)C(=O)NC(CCCCN)C(=O)NC(CC(=O)O)C(=O)NC(Cc1ccc(O)cc1)C(=O)NC(CC(C)C)C(=O)NC(CCCCN)C(=O)N1CCCC1C(=O)NC(CC(=O)O)C(=O)NC(CC(=O)O)C(=O)O (stereo unspecified) | > 82.5 µM | > 82.5 |
| N#Cc1c(-c2ccc(Cl)cc2)cc(-c2ccc(Nc3ccnc4cc(C(F)(F)F)ccc34)cc2)nc1N | – | 53.2 |
| CN1C(=O)N(C)C2C1NN=c1s/c(=C\c3ccccc3F)c(=O)n12 (stereo unspecified) | 0.705 µM | > 100 |
| CN1CCN(c2ccc(N3Cc4ccccc4OC4=C3C(=O)c3c(O)ccc(O)c3C4=O)cn2)CC1 | 1.64 µM | 5.19 |
| Cc1cc2cc3c(Cl)c(CCCl)c(C)nc3cc2c(Cl)c1CCCl | – | 81.7 |
| COC(=O)C(CCC1C=CN(S(=O)(=O)c2ccc(C)cc2)C1)N=Cc1ccccc1 (stereo unspecified) | – | > 100 |
| CC(C)OC(=O)c1ccc(CCc2cc(O)c(Br)cc2O)cc1 | – | 61.5 |
| CCOc1ccc2nc(S/C(=C/C=C(C#N)C#N)c3ccc(Cl)cc3)sc2c1 | 17.4 µM | 35.1 |
| C=CCCCC(C#N)(c1ccccc1)N1CCCC1 (stereo unspecified) | – | > 100 |
| CCCCCC(=O)N[C@H]1CCc2cc(OC)c(OC)c(OC)c2-c2ccc(SC)c(=O)cc21 | – | > 100 |
| CN(CC(=O)O)S(=O)(=O)c1ccc(F)cc1 | – | > 100 |
| COc1ccc2nc3cccc([N+](=O)[O-])c3c(NCCN(C)C)c2c1 | – | 0.491 |
| C=C(CN(C)C)C1(c2ccccc2)CC2(CCCC2)C(=O)O1 (stereo unspecified) | – | > 100 |
| CC1=NN(c2nc(N)nc(COCc3nc(N)nc(N4N=C(C)CC4(C)C)n3)n2)C(C)(C)C1 | – | > 100 |
| CN(C)C(=O)Nc1c([N+](=O)[O-])cc(C(F)(F)F)cc1[N+](=O)[O-] | – | > 100 |
| O=C1CC[C@@]2(O)[C@H]3Cc4ccc(-c5cccc(O)c5)c5c4[C@@]2(CCN3CC2CC2)[C@H]1O5 | – | > 100 |
| Cc1cc2c(c(C)c1O)C(C)(C)CN2C(=O)C(C)(C)C | – | > 100 |
| COc1ccc(C(=O)N/N=C2\C(=O)c3c(C)cc(C)cc3CC2(C)C)cc1 | – | 90.7 |
